Experimental data published in paper PMC12136788.
This is one part of the list.

B1: chr5:40767622:40767623:-_ENSG00000132356_ENST00000397128|hu_mus|FALSE|FALSE (ssRNA)
RNA: GGGAGUUCUACAGUCCGACGAUCAUCUUUUAUUGCGGCCCUCUUCAUGGGAUCCACCUGCAGCAUAUGUUUCAAAAGGCUGAUUACUGAAGGGUUUAAGUACUGAGGGGUAUAAAAGAUCCCAUCACAUAUCUUCUUAAAAAGCAACAGAGGAUUGAGCAUCA
B2: chr18:35732242:35732243:+_ENSMUSG00000037236_ENSMUST00000166793|perfect_dup|motif|central (ssRNA)
RNA: GGGAGUUCUACAGUCCGACGAUCACGACUUCCAUGGUCAUAAUCAAGCACUGGGUUGAGACUAGGACCACGAUCAUCAAAACGGUCUCUUCUAAAGUGCCUUUUUUCUUCCCAAUCAUCCCUAGGUACUCUGUAUGGUGGCUCCAACAGAGGAUUGAGCAUCA
B3: chr14:76904430:76904431:+_ENSMUSG00000022010_ENSMUST00000022587|mus_mus|mus_mus_mus_hu_True|58_68 (ssRNA)
RNA: GGGAGUUCUACAGUCCGACGAUCUGCAGCCAAAAACACCCUCGUGGAAAAAAAGAGGGAACACCAGCAGCCUGGUUCAAACUAGAUAAAAUCUUCUGGCUUUCCGCAGCCCAGGGAGAAACAGAAAACGGCAGCCCUAAUUUACAACAGAGGAUUGAGCAUCA
B4: chr6:145182920:145182921:-_ENSMUSG00000030265_ENSMUST00000032399|mus_hu|FALSE|FALSE (ssRNA)
RNA: GGGAGUUCUACAGUCCGACGAUCCUCCUCUUGACCUGCUGUGUCGAGAAUAUCCAAGAGACAGGUUUCUCCAUCAAUUACUACUUGCUUCCUGUAGGAAUCCUCUAUUGUUGGAUCAUAUUCGUCCACAAAAUGAUUCUGAAUCAACAGAGGAUUGAGCAUCA
B5: chr2:26332712:26332713:+_ENSG00000084733_ENST00000264710|hu_hu|FALSE|FALSE (ssRNA)
RNA: GGGAGUUCUACAGUCCGACGAUCGUUUCUAAGCCAUUUGCUGAUGUUUUCAAAACUUUUACCAUUGGUGAUGUCAUAUACUAGCAUGAUACCCAUUGCGCCUCUGUAGUAGGAGGUUGUGAUGGUGUGAAAUCGCUCCUGGCCCAACAGAGGAUUGAGCAUCA
B6: chrX:71549762:71549763:+_ENSMUSG00000019087_ENSMUST00000019231|mus_mus|mus_mus_mus_hu_False|38_78 (ssRNA)
RNA: GGGAGUUCUACAGUCCGACGAUCAAACCCGUGUACUUCUUAUUGUUAGCACAACAUUCCCCCCCAACGAUAACGACAGCCAAGCAGGACAGACAGUCAAGUAGUCUUUCCACACUCCCAAACUCAGGGAGCCCUAUAACCUUACAACAGAGGAUUGAGCAUCA
B7: chr12:25741899:25741900:+_ENSMUSG00000036333_ENSMUST00000066652|mus_mus|motif|central (ssRNA)
RNA: GGGAGUUCUACAGUCCGACGAUCCAAGUCUGUCUGGAAGAGACUAGGCCGUUCUGAAGACUUCUUGCCUGGGAGCAGCUUACGGCCUGACUGGUCGGAUUUCUCAUCUUCCUCAGUAAUGGGGUCCAGGGGUGAGGCCUCAUUCAACAGAGGAUUGAGCAUCA
B8: chr13:100193275:100193276:-_ENSMUSG00000052727_ENSMUST00000064762|mus_mus|FALSE|FALSE (ssRNA)
RNA: GGGAGUUCUACAGUCCGACGAUCAGGCUAGAAAUUGUUUCUCUUCACGUGUGGACCAGCCUAACAGCUCCCAUUAAAUUACUAUCUUGUGUGUAUUGAGCUUGUCUGAUGAAGUGAGAAGCAAGUGGGCUUACAGGCAACGAACAACAGAGGAUUGAGCAUCA
B9: chr1:66459500:66459501:+_ENSMUSG00000015222_ENSMUST00000114013|mus_mus|motif|central (ssRNA)
RNA: GGGAGUUCUACAGUCCGACGAUCGAAGACAGGGGCAAAGGGUCGUGGUCCUUCUGAGACUCUCUCAUUCUUCAUAGUGUCGGAGGGAAGAGUGAAACUUCCACCAUGGAAGGGGCUUGGCAUGGGAGAGUCAAACUGCUUCCCCAACAGAGGAUUGAGCAUCA
B10: chr4:25749455:25749456:-_ENSG00000091490_ENST00000264868|hu_hu|hu_hu_hu_mus_False|1_28 (ssRNA)
RNA: GGGAGUUCUACAGUCCGACGAUCGCACUAUGACCUCUAGAAAAAUCCACAGGGGGAAAAAAUGUAAACCAAUGUACAAUGUUAUCGCCUUCCCUGUGUGUGGAGUGACAAACAAUUGGCUCCUUCUAGCUGCUGGACUGCUAGCAACAGAGGAUUGAGCAUCA
B11: chr2:172291668:172291669:+_ENSG00000115827_ENST00000375255|hu_mus|motif|central (ssRNA)
RNA: GGGAGUUCUACAGUCCGACGAUCAACACUGCUGACACAGCACCGGUAAUUGUCAAAAUAUAUUCUUCCUCUCUCAUAGGCGGUAGGUGACUUGGAAUGAGUUGUCCAAACAUUCUUAAAUUUAGUACUCUCCUGGCACACCAGCAACAGAGGAUUGAGCAUCA
B12: chr2:9570881:9570882:+_ENSG00000119203_ENST00000238112|hu_mus|hu_hu_hu_mus_False|48_48 (ssRNA)
RNA: GGGAGUUCUACAGUCCGACGAUCACUUGUCUUCUGAAGGAACCAGGGCAGGGCUCCACAGUGAUCCAAAUGGAAAUGACUGAUCAAUAGGAGAUCAAUCUCAGCUGGGUCGAUAAGGUCAAUGUAAGGAAGGGCAUCCAUUCCCAACAGAGGAUUGAGCAUCA
B13: chr1:220276048:220276049:+_ENSG00000067704_ENST00000302637|hu_hu|hu_hu_hu_mus_True|38_68 (ssRNA)
RNA: GGGAGUUCUACAGUCCGACGAUCGCAAAUUGCCUGGUUGGCGGGAAUUGUCCAAGGCUGGGUGGUCCAGACCAAAACGCUAACAGGGGAUGAGGCAUCUAUAAGAGACUCCAACUUCGGAGGAGGUCUCAGGAGGGGGAAUCUCAACAGAGGAUUGAGCAUCA
B14: chr2:32530670:32530671:+_ENSG00000119820_ENST00000437765|hu_hu|FALSE|FALSE (ssRNA)
RNA: GGGAGUUCUACAGUCCGACGAUCCCAAUUCCUUCAGCAAGAAUUCCCAGCCUACACACAAAUUUAACACCAUCUUUUUCUAUUCAUGUAUAACUUGGAUCACACACCAGUAUAUAACGACAAAAAAUAAAUGUAUAAUAAAAACAACAGAGGAUUGAGCAUCA
B15: chr2:47387409:47387410:-_ENSG00000143933_ENST00000272298|hu_hu|motif|central (ssRNA)
RNA: GGGAGUUCUACAGUCCGACGAUCAUACAACUUGGAAUGGAUUUUGAGGCAAAUUGUGCCAUAAGCAGAUUUUAAGUGGCGGAACAAAGUUUAAAAAGCAAGUAACAAUAAAAGAAAAUGUUUCUGGUACAGGACCAGCAGUACCAACAGAGGAUUGAGCAUCA
B16: chr1:59925254:59925255:+_ENSMUSG00000067336_ENSMUST00000087435|mus_hu|motif|central (ssRNA)
RNA: GGGAGUUCUACAGUCCGACGAUCAUCUUGUUCUGAACAUGGAUUGCUGUUGUUGUUAUUGGAAUUAGUUCGGCCACCUUCGGGUGGCCGUUCCCUCCUGUCCACAAGACGAUCCAGAACACCUUCAUCAUGGCCAGCUUGUUGCAACAGAGGAUUGAGCAUCA
B17: chr4:106720802:106720803:+_ENSMUSG00000061887_ENSMUST00000030367|mus_mus|FALSE|FALSE (ssRNA)
RNA: GGGAGUUCUACAGUCCGACGAUCAGUUUUGUCCUUCAUGUUUUACGGAAUAAAAGUUUGGCCUUUUUAUUGCAUGAAACUAAAAUUGGGGAAGGUGGGGGAGUGAAUGGGAGGGUGGAGGGAGCAGGAGAUGCCCUCCCCCAGCAACAGAGGAUUGAGCAUCA
B18: chr13:45008927:45008928:-_ENSG00000102804_ENST00000261489|hu_hu|FALSE|FALSE (ssRNA)
RNA: GGGAGUUCUACAGUCCGACGAUCAGGACUGGCCAGUGUCUUCAGCAGAUUGUUCUCCUGCUCCAGCUGGGAAUUUUUCUCUAUUAGUUCUUUGAUUUGCUCUUUGAGGACCUCCACUUCUUCUCUGACCGCAUACAUCAAAUGCAACAGAGGAUUGAGCAUCA
B19: chr6:40197388:40197389:+_ENSMUSG00000057716_ENSMUST00000061740|mus_mus|mus_mus_mus_hu_False|18_78 (ssRNA)
RNA: GGGAGUUCUACAGUCCGACGAUCGAGACACUGGGGUGGAUUUAUUCCACCUCUGUUUGCUAGCCUCCCACUAAGACUGUUAUUUUGGGAUUCAUGGCCUUGAAUAUCAAGAGGGAAGGGACGAGAAUGGAAAGAGUCAAGAGUCAACAGAGGAUUGAGCAUCA
B20: chrX:7396663:7396664:+_ENSMUSG00000031153_ENSMUST00000132456|mus_mus|FALSE|FALSE (ssRNA)
RNA: GGGAGUUCUACAGUCCGACGAUCGCAAGGGCAUACAUGGAUGGAUCAGUGGGCAGAGGGACAGAUGGCAGACUGAUGGGCUAACCUGGGAAGUUGAUUGGAGGGUAAAAGAGGUGAACACAAAAGGGCGGUAGAUGACUGGAACAACAGAGGAUUGAGCAUCA
B21: chr1:2330915:2330916:+_ENSG00000157916_ENST00000443438|hu_mus|FALSE|FALSE (ssRNA)
RNA: GGGAGUUCUACAGUCCGACGAUCAGGGCCGUCAUCUGAGUCUUCCAUCAAGGAAGGAUCCACUUUGGGAGAAAGGAACGCAAUGAAAAGGUUUAGGUGGUAAAUUCCCAAGGCGUAGGUCACAAUGUACCAACCUUGUAACAGCAACAGAGGAUUGAGCAUCA
B22: 108935682_108940753_566_CDS_ENSG00000138796_ENST00000309522|human|control|control (ssRNA)
RNA: GGGAGUUCUACAGUCCGACGAUCGGCAUUAGCUAUGCUUGUAAUCUGCAAGGAGGAAGUGUUGCUGGCAAAGAUUGUAUGUUCAGCAGCAAACUUGUCCAGCCUUUUGAAGAGCUCGUUUUUCACCUUCAGAUUCUCCACGAUCAACAGAGGAUUGAGCAUCA

The binders below were run against T1, UNK ZnF1-3 (human, UniProt Q9C0B0 31-174) (assay: nsRBNS (natural sequence RNA bind-n-seq); RBNS binding buffer (assumed for nsRBNS): 25 mM Tris pH 7.5, 150 mM KCl, 3 mM MgCl2, 0.01% Triton X-100, 500 ug/ml BSA, 20 U/ml SUPERase-In, 4 C; UNK is unkempt and MSI1 is Musashi-1; names of the RNAs are library labels; protein concentration not given here; high values mean tight binding).
T1 sequence: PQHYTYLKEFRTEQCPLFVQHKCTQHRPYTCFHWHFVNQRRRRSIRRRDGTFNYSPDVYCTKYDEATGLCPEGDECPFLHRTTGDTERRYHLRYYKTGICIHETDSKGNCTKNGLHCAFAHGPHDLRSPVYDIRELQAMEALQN

Binder	binding signal [enrichment R]
B1	1.16
B2	1.05
B3	2.75
B4	0.592
B5	0.595
B6	1.41
B7	0.478
B8	0.908
B9	0.887
B10	0.989
B11	1.49
B12	1.11
B13	1.77
B14	2.78
B15	1.89
B16	0.509
B17	1.11
B18	1.11
B19	1.3
B20	2.4
B21	1.14
B22	0.728
